From the supplement of paper PMC11417369 come the findings set out here.

± gives the standard deviation of the averaged measurements. Some of the results follow.

The subject of the assay is PfAP2-G AP2 domain (GST-tagged). Description: gcPBM binding intensity (ln(normalized median fluorescence intensity)); higher = stronger DNA binding. Summed up: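 In this array assay, P. falciparum DNA-binding domains with a GST tag, expressed in E. coli, were applied for 1 h to primer-extended double-stranded 36-bp intergenic genomic probes and negative controls on an Agilent 4 × 180k array. Bound protein was visualised with Alexa488 anti-GST antibody at 488 nm. Binding intensity is the highest Masliner-normalised natural-log median intensity across replicate spots of either probe orientation.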
Consider “CACAAAAATAAACACACACACATATATATTTATTAT [CACACA_site5923]”, for which the “gcPBM binding intensity (ln)” value stood at 9.85 ± 0.14.

As for “ATTCAAAATTATAGGTGTACGTATTTTTTTTTTTTT [XGTACX_site7177]”, the “gcPBM binding intensity (ln)” value was 11.6 ± 0.86.

For the sequence ATAATTTCATAATACGTGCACATAATATATAAAAAA, the “gcPBM binding intensity (ln)” value amounted to 10.6 ± 0.53.

Turning to “AGATGATATAATGGCACACAAATATTTTATTATAAA [CACACA_site3553]”, the “gcPBM binding intensity (ln)” value was determined as 10.14 ± 0.092.

Consider “TAAATTTATAAATCACGTACATATTTATTTATATTT [XGTACX_site4532]”, for which the “gcPBM binding intensity (ln)” value amounted to 11.2 ± 0.7.

In the case of “TAAAATAATAAAACAACACACAAATAGTTAAAATAG [CACACA_site1680]”, the “gcPBM binding intensity (ln)” value is 9.99 ± 0.014.

As for “ATTGACGTCATATAAACATGCACATTTTGGATGTTT [TGCATGCA_site985]”, the “gcPBM binding intensity (ln)” value is 10.01 ± 0.042.

On to “CATATAATAAAAAATGTACACACATAAGAAAATTTA [CACACA_site8943]”, for which the “gcPBM binding intensity (ln)” value turned out to be 11.3 ± 0.67.

Regarding “TATGTGTATAATAAAAGTACATATATTATTATATAA [XGTACX_site8556]”, the “gcPBM binding intensity (ln)” value was 11.3 ± 0.9.

Take “GTCATATTATTATTACGTACTTAAATATATAATATA [XGTACX_site3405]”: the “gcPBM binding intensity (ln)” value turned out to be 11.5 ± 1.1.

In the case of “AAAAGAAAAAAAAGTACACACATGTATATTAATCGT [CACACA_site2528]”, the “gcPBM binding intensity (ln)” value was determined as 11.6 ± 1.1.

Consider “TGTTAACTTAAAAAAATACCTACGGAAAAATCACAA [TGCATGCA_negctrl_site433]”, for which the “gcPBM binding intensity (ln)” value was 9.955 ± 0.064.

As for “TAAATATAATAAGAACAAACAAAATAGTACAATATA [TGCATGCA_negctrl_site364]”, the “gcPBM binding intensity (ln)” value turned out to be 11.4 ± 0.65.

As for “TTTTTTTTAAATTGTGGTACACAAATTCATATATAT [XGTACX_site8944]”, the “gcPBM binding intensity (ln)” value was found to be 11.5 ± 1.1.

For “TACAGATACGGACACACACACACACCCAGACAAAAA [CACACA_site4432]”, the “gcPBM binding intensity (ln)” value amounted to 11.3 ± 0.92.

Turning to “ATATTAAAATATAATCGTACAATTAAATTTTTTTTT [XGTACX_site2739]”, the “gcPBM binding intensity (ln)” value worked out at 11 ± 0.57.

“TACAAAATACAAAAATGTACATAAAAATTTATAAAA [XGTACX_site6861]”: the “gcPBM binding intensity (ln)” value was determined as 11.2 ± 0.62.

For “TAAAATAAGTTAAAAAGTACATAATTATAATAAATA [XGTACX_site8108]”, the “gcPBM binding intensity (ln)” value is 11.1 ± 0.67.

As for “CACAAAAATAAATATAAACACACAATAAATAAATAA [CACACA_site8197]”, the “gcPBM binding intensity (ln)” value was determined as 9.965 ± 0.064.

As for “ATATATATATATATTCCACACACACCCAAAAAAAAA [CACACA_site9215]”, the “gcPBM binding intensity (ln)” value stood at 10.4 ± 0.44.

Consider “TTTGTTTTTATTTACACATGCAAAAAAAAAAAAAAA [TGCATGCA_site655]”, for which the “gcPBM binding intensity (ln)” value was 9.98 ± 0.58.

In the case of “TTATAATAGTTAATATGTACATATTTAATAAATAAT [XGTACX_site3183]”, the “gcPBM binding intensity (ln)” value worked out at 11.2 ± 0.79.

Turning to “CCCCCCCACGAACACACACACATACATACCACATAT [CACACA_site7149]”, the “gcPBM binding intensity (ln)” value turned out to be 12 ± 1.

With “AATAAATAAAAAATTACACACATATTTATAAATATA [CACACA_site7584]”, the “gcPBM binding intensity (ln)” value is 9.81 ± 0.028.

Regarding “AAGATAAACTTTTTTAATTAATTTAATTTTTTTTTT [GTGCAC_negctrl_site386]”, the “gcPBM binding intensity (ln)” value amounted to 9.645 ± 0.035.

As for “TTATTTATTTTTTATACACACAATTATCTTTTTAAG [CACACA_site6162]”, the “gcPBM binding intensity (ln)” value worked out at 9.9 ± 0.11.

With “ATATTTATTTAATGAACACACGATATATTATTTTAT [CACACA_site1602]”, the “gcPBM binding intensity (ln)” value was determined as 10.01 ± 0.035.

Take “TCATATAATCAAATATGTACATATTTTCAATTGAAT [XGTACX_site6831]”: the “gcPBM binding intensity (ln)” value came out at 11.3 ± 0.62.

Take “ATATAATTTGATGGTTAACACACATATATATTATAT [CACACA_site8775]”: the “gcPBM binding intensity (ln)” value was 9.945 ± 0.007.

Take “CACTTCATAAAAATTGCACACATATAATAATGTACA [CACACA_site8692]”: the “gcPBM binding intensity (ln)” value was found to be 10.6 ± 0.36.

On to “ACAATGAAATATTCATGTACATATAAATAATAGTGT [XGTACX_site3762]”, for which the “gcPBM binding intensity (ln)” value amounted to 11.3 ± 0.65.

On to “ATATAGAATATATTAACATGCAATAAGTAAAGGGGG [TGCATGCA_site1022]”, for which the “gcPBM binding intensity (ln)” value amounted to 11 ± 0.5.

In the case of “AAAATGATAATACCAAGTACACATATGAAAAATACA [XGTACX_site6763]”, the “gcPBM binding intensity (ln)” value came out at 11.3 ± 0.83.

Regarding “ATATAAATATTAAATACACACATTTTTGATTAGGTT [CACACA_site7461]”, the “gcPBM binding intensity (ln)” value was 9.915 ± 0.078.

With TAAATCATTTATTAAGTGCAATATTCTTTTTGAGAT, the “gcPBM binding intensity (ln)” value was 9.73 ± 0.028.

Turning to “TGTTTTCCCTTTAGTGTGCACGTATTTCTATTAACA [GTGCAC_site9847]”, the “gcPBM binding intensity (ln)” value worked out at 10.7 ± 0.46.

As for “TAAAAACATTTAAATTGTACGGAAATAAAAATTTTT [XGTACX_site8225]”, the “gcPBM binding intensity (ln)” value was determined as 10.9 ± 0.57.

In the case of “GACCCATTATTTTATTGTACTTTTATTATAACGTGA [XGTACX_site156]”, the “gcPBM binding intensity (ln)” value stood at 11.4 ± 0.81.

“AAATGAATAATGATATACAAACAAATCATGTGTTAA [XGTACX_negctrl_site150]”: the “gcPBM binding intensity (ln)” value was 9.51 ± 0.39.

As for “ATACATTCAAAATATACACACATATATATATAATAT [CACACA_site950]”, the “gcPBM binding intensity (ln)” value turned out to be 9.95.

As for “TTTCCCCCATATAATGAACACACACCCTCCTCATAA [CACACA_site8110]”, the “gcPBM binding intensity (ln)” value worked out at 11.2 ± 0.65.

Take “TATGTTAAAAAAAAATGTACATATGTTTTTGTTAAA [XGTACX_site4754]”: the “gcPBM binding intensity (ln)” value came out at 11.2 ± 0.86.

Turning to “AAAATAAAAATAACAACACACATATACTATAATATT [CACACA_site2769]”, the “gcPBM binding intensity (ln)” value is 9.82 ± 0.057.

“ATGTGTGTATACATCAATTATATATATATTATGTAT [GTGCAC_negctrl_site720]”: the “gcPBM binding intensity (ln)” value was 10.2 ± 0.24.

As to “ATAAATATATGAAGTTGTACAAATAATTAACATTAT [XGTACX_site5740]”, the “gcPBM binding intensity (ln)” value stood at 11.2 ± 0.64.
